# PubChem BioAssay AID1508642 (National Center for Advancing Translational Sciences (NCATS), 2021)
# In all, about 43,000 compounds went through this assay and about 200 (0.47%) were called active. About 12% were inconclusive and are not listed. The call rests on the fitted dose curve; in most records, active means well fitted cell-killing curve with a large enough effect; inconclusive means small, poorly fitted or top-dose-only effect, or effect the other way; inactive means flat fitted curve, though single readings scatter. The list shows a part of the results.
# Assay: Cell viability qHTS assay in S16 Pmp22-F2sN cells; further: nearly all actives have a fitted effect of over 65% in size
# Settings: S16 Pmp22-F2sN Schwann cells (luciferase reporters placed in the Pmp22 gene) viability, CellTiter-Glo, 24 h; series mostly up to 57.5 µM; activity change, negative = cytotoxicity: at the top concentration
# Procedure, shortened: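 Seed 500-1,000 S16 Pmp22-F2sN cells per well in phenol-red-free DMEM with 10% heat-inactivated FBS; pin-add 23 nL compound; incubate 24 h at 37C; add CellTiter-Glo, wait 15 min protected from light; read luminescence.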
# On the % scale 0 is the no-effect control and ±100 the full control effect.
row,SMILES,"activity change, negative = cytotoxicity"
1,COc1ccccc1NC(=O)CCS(=O)(=O)c1cc2c3c(c1)CCN3C(=O)CC2,inactive: 9.42%
2,COc1ccc(CNC(=O)CSc2n[nH]c(-c3ccc(OC)cc3)n2)cc1,inactive: -15.6%
3,Cc1ccc(NC(=O)c2cc3c([nH]c2=O)CC(C)(C)CC3=O)c(C)c1,inactive: 0.563%
4,Cc1ccccc1-c1nc(CS(=O)(=O)CC(=O)Nc2cc(Cl)cc(Cl)c2)c(C)o1,inactive: 22.4%
5,CC(C)c1ccc2c(c1)-c1ccccc1S(=O)(=O)N2CC(=O)N1CCCCC1,inactive: -8.13%
6,COc1cc(Cn2c(=O)sc3ccccc32)ccc1OCCC(C)C,inactive: -6.35%
7,Cc1cc(Cl)ccc1OCC(=O)Nc1c(C(=O)c2ccccc2)oc2ccccc12,inactive: 4.62%
8,O=C(CSc1ncc(-c2ccccc2)[nH]1)Nc1cccc(C(F)(F)F)c1,inactive: -2.12%
9,COc1ccccc1NC(=O)c1c(NC(=O)Cc2ccccc2)sc2c1CCC(C(C)(C)C)C2 (configuration not stated),inactive: 0.465%
10,CCc1ccc(CNC(=O)Cn2c(-c3cccs3)cc3cc(F)ccc32)cc1,inactive: 2.4%
11,CCn1nc(C)c(CCN(C)C(=O)Nc2cc(C)cc(C)c2)c1C,inactive: 3.58%
12,O=C(Nc1cnc(N2CCC(N3CCCCC3)CC2)c(C(=O)O)c1)c1ccc(Br)cc1,inactive: 10.4%
13,Cc1ccc(CSc2nc3ccc(NC(=O)COc4ccc(F)cc4)cc3s2)cc1,inactive: 6.54%
14,COc1ccccc1NC(=O)Cn1c(=O)n(Cc2ccccc2)c(=O)c2c3c(sc21)CN(C(C)=O)CC3,inactive: 1.05%
15,CCn1ccc2c(OCC(=O)NCc3ccc(C)cc3)cccc2c1=O,inactive: -3.73%
16,Cc1cc(C)nc(-n2nc(C)c3c2NC(=O)CC3c2cc(F)ccc2F)n1 (configuration not stated),inactive: -10.7%
17,COc1ccc(-c2cc(C(C)=O)c(C)n2CCC(=O)Nc2ccc(C(F)(F)F)cc2)cc1,inactive: -24.3%
18,Nc1nonc1C(=O)NCCNCc1ccc(Cl)c(Cl)c1,inactive: 26.9%
19,Cc1ccc(CNC(=O)c2ccc(-c3nc(CS(=O)c4ccccc4)c(C)o3)cc2)cc1 (configuration not stated),inactive: 18.2%
20,Cc1cccc(-c2nc(CSCC(=O)NCCc3ccc(Cl)cc3)c(C)o2)c1,inactive: -1.88%
21,Cc1ccc(-c2nn(CC(=O)NC3CCCC3)c3c2cnc2ccccc23)cc1,inactive: 22.5%

row,SMILES,"activity change, negative = cytotoxicity"
1,Cc1ccc(C)c(NC(=O)CN2C(=O)c3cccnc3Oc3ccc(C)cc32)c1,inactive: 2.69%
2,Cc1ccc(C)c(NC(=O)c2nn(C)c3c2CS(=O)(=O)c2ccccc2-3)c1,inactive: 12.8%
3,CC(C)(C)C1CCc2c(sc3nnn(CCOc4ccccc4)c(=O)c23)C1 (configuration not stated),inactive: 3.76%
4,COc1cc(/C=C/c2nc(C#N)c(NCCc3ccccc3)o2)cc(OC)c1OC,inactive: -28.7%
5,COc1cc(NC(=O)c2nc3ccccc3nc2N2CCCCC2)cc(OC)c1OC,inactive: -16.8%
6,CCOC(=O)N1CCc2c(sc3c2c(=O)n(CCc2ccccc2)c(=O)n3CC(=O)Nc2cccc(C)c2)C1,inactive: 1.98%
7,COCCn1ccc2c(OCC(=O)Nc3ccccc3F)cccc2c1=O,inactive: 6.82%
8,CC(C)(C)c1ccc(CN(Cc2ccco2)c2cnc(S(C)(=O)=O)nc2C(=O)Nc2ccc(F)cc2)cc1,inactive: 1.73%
9,Cc1cc(C)c(NC(=O)Cn2c(=O)nc(-c3ccccc3)c3cc(Cl)ccc32)c(C)c1,inactive: 3.96%
10,COc1cc(NC(=O)N2CCC3(CC2)Nc2cc(F)ccc2-n2cccc23)cc(OC)c1OC,inactive: -11.6%
11,COc1ccc(OC)c(C2C(C(=O)N3CCCCC3)=C(C)Nc3nc4ccccc4n32)c1 (configuration not stated),inactive: 10.8%
12,N#C/C(=C/c1cn(Cc2ccccc2Cl)c2ccccc12)C(=O)Nc1cccc(Cl)c1,inactive: -3.18%
13,CCc1ccc(-c2nn(CC(=O)Nc3ccccc3C)c3c2cnc2ccc(C)cc23)cc1,inactive: 0.783%
14,Clc1ccc(OCc2nc3ccccc3n2Cc2ccccc2)c(Cl)c1,inactive: 8.57%
15,Cc1cc(=O)n(Cc2cccc(F)c2)c2c1c(C)nn2-c1cccc(F)c1,inactive: 5.99%
16,CCc1cccc(CC)c1-n1nnc2c(sc3nc(C)cc(C)c32)c1=O,inactive: 7.01%
17,Cc1ccccc1CN1c2ccccc2-c2nc(SCC(N)=O)ncc2S1(=O)=O,inactive: 11.4%
18,COC(=O)c1c(NC(=O)c2cc(OC)c(OC)c(OC)c2Br)sc2c1CCC(C)C2 (configuration not stated),inactive: -8.98%
19,CC(C)CNc1ncnc2c1nnn2C,inactive: -12.1%
20,O=C(CCNS(=O)(=O)c1cccc2nsnc12)NCc1ccccc1,inactive: -2.53%
21,COc1ccc(CNC(=O)CCn2nc(C)c3c(C)n(-c4ccccc4)nc3c2=O)c(OC)c1,inactive: 11.2%

row,SMILES,"activity change, negative = cytotoxicity"
1,CNC(=O)Cn1c(=O)c2cccn2c2ccc(F)cc21,inactive: -6.76%
2,COc1ccc(Cl)cc1NC(=O)Cn1nc(Cc2ccncc2)c2ccccc2c1=O,inactive: -26.1%
3,CCc1ccccc1NC(=O)C1CCN(C(=O)N2CC(C)Oc3ccc(Cl)cc32)CC1 (configuration not stated),inactive: -20.6%
4,COc1ccccc1NC(=O)N1CCC(CN2CCc3ccccc3C2)CC1,inactive: 4.28%
5,Cc1cc(F)ccc1NC1(c2ccccc2)C(=O)c2ccccc2C1=O,inactive: -0.958%
6,CCOc1ccccc1NC(=O)Cn1c(=O)n(Cc2ccco2)c(=O)c2ccc(C(=O)NC3CCCC3)cc21,inactive: 11.8%
7,CCOc1ccc(N(CC(=O)Nc2ccccc2CC)S(=O)(=O)c2c(C)[nH]c(=O)[nH]c2=O)cc1,inactive: 6.67%
8,Cc1ccc(NC(=O)Cn2c(=O)oc3ccccc32)cc1C,inactive: 4.33%
9,Cc1ccc(NC(=O)c2sc3nc[nH]c(=O)c3c2C)cc1Cl,inactive: -12.1%
10,Cc1ccc(OC(=O)CSc2nnc(-c3cccs3)o2)cc1C,inactive: 4.36%
11,CCn1cc(C(=O)NCCc2ccc(OC)c(OC)c2)c(=O)c2cc(S(=O)(=O)N3CCC(C)CC3)ccc21,inactive: -17.1%
12,CCOc1ccc(-n2c(SCC(=O)N3CCCCCC3)nc3c([nH]c4ccccc43)c2=O)cc1,inactive: 20.6%
13,Cc1ccc(NC(=O)CCNS(=O)(=O)c2cccc3nonc23)cc1Cl,inactive: -0.471%
14,Cc1cn2c(=O)cc(COC(=O)c3cccc(NC(=O)COc4ccccc4C)c3)nc2s1,inactive: -2.18%
15,Cc1ccc(Cc2nc3ccccc3nc2SCC(=O)N2CCCc3ccccc32)cc1,inactive: 18%
16,COc1ccc(-n2c(-c3ccc(C)cc3)cc3c2CC(C)(C)CC3=O)c(OC)c1,inactive: -16.5%
17,Cc1ccccc1C(=O)NCCc1csc(-c2ccc(C(F)(F)F)cc2)n1,inactive: -20.7%
18,CCOC(=O)CSc1nc(-c2ccc(Cl)cc2)cc(C(F)(F)F)c1C#N,inactive: -0.106%
19,Cc1ccc(C(=O)Oc2c(S(=O)(=O)c3ccccc3)c(C)nn2-c2ccccc2)cc1,inactive: 7.11%
20,CN1C(=O)c2ccccc2Sc2ccc(NC(=O)NCc3cccc(Cl)c3)cc21,inactive: -26.5%
